Assay in all cases: glycan array binding signal (z-score within array); higher = stronger binding
What all share (settings): glycan notation: IUPAC condensed, linker removed

For experiment [1], the target named is Gal(b1-4)GlcNAc(b1-2)Man(a1-6)[Man(a1-3)]Man(b1-4)GlcNAc(b1-4)GlcNAc. The method, boiled down: (§1)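 The binding signal is a Z-score computed within each array. Data were drawn from 3228 arrays in the Consortium for Functional Glycomics database, restricted to those with a known protein sequence. Scores were averaged over arrays of the same protein sequence at different concentrations or buffers, and over linkers, and negative values can be taken as non-binding.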

The target of experiment [2] is Gal(b1-4)GlcNAc(b1-2)[Gal(b1-4)GlcNAc(b1-4)]Man(a1-3)[Gal(b1-4)GlcNAc(b1-2)Man(a1-6)]Man(b1-4)GlcNAc(b1-4)GlcNAc. The procedure, abridged: as §1
The target of experiment [3] is Gal(b1-4)GlcNAc(b1-2)[Gal(b1-4)GlcNAc(b1-4)]Man(a1-3)[Gal(b1-4)GlcNAc(b1-2)[Gal(b1-4)GlcNAc(b1-6)]Man(a1-6)]Man(b1-4)GlcNAc(b1-4)GlcNAc. The method, boiled down:
as §1

In experiment [4] the target is Gal(b1-4)GlcNAc(b1-2)[Gal(b1-4)GlcNAc(b1-4)]Man(a1-3)[GlcNAc(b1-4)][Gal(b1-4)GlcNAc(b1-2)Man(a1-6)]Man(b1-4)GlcNAc(b1-4)GlcNAc. The method, boiled down: as §1
Experiment [5] has as its target Gal(b1-4)GlcNAc(b1-2)[Gal(b1-4)GlcNAc(b1-4)]Man(a1-3)[GlcNAc(b1-4)][Gal(b1-4)GlcNAc(b1-2)[Gal(b1-4)GlcNAc(b1-6)]Man(a1-6)]Man(b1-4)GlcNAc(b1-4)GlcNAc. The procedure, abridged:
as §1

Experiment [6] concerns the target Gal(b1-4)GlcNAc(b1-2)[Gal(b1-4)GlcNAc(b1-6)]Man(a1-6)[Gal(b1-4)GlcNAc(b1-2)Man(a1-3)]Man(b1-4)GlcNAc(b1-4)GlcNAc. The procedure, abridged: as §1
In experiment [7] the target is Gal(b1-4)GlcNAc(b1-2)[Gal(b1-4)GlcNAc(b1-6)]Man(a1-6)[Gal(b1-4)GlcNAc(b1-2)Man(a1-3)]Man(b1-4)GlcNAc(b1-4)[Fuc(a1-6)]GlcNAc. The procedure, abridged: as §1
Experiment [8] addresses Gal(b1-4)GlcNAc(b1-2)[Gal(b1-4)GlcNAc(b1-6)]Man(a1-6)[GlcNAc(b1-4)][Gal(b1-4)GlcNAc(b1-2)Man(a1-3)]Man(b1-4)GlcNAc(b1-4)GlcNAc. The method, boiled down:
as §1

The target of experiment [9] is Gal(b1-4)GlcNAc(b1-2)[Gal(b1-4)GlcNAc(b1-6)]Man(a1-6)[GlcNAc(b1-4)][Gal(b1-4)GlcNAc(b1-2)[Gal(b1-4)GlcNAc(b1-4)]Man(a1-3)]Man(b1-4)GlcNAc(b1-4)[Fuc(a1-6)]GlcNAc. The method, boiled down: as §1
In experiment [10] the target is Gal(b1-4)GlcNAc(b1-3)Gal(b1-3)GalNAc. The procedure, abridged: as §1
Experiment [11] addresses Gal(b1-4)GlcNAc(b1-3)Gal(b1-3)GlcNAc. The method, boiled down: as §1
Experiment [12] addresses Gal(b1-4)GlcNAc(b1-3)Gal(b1-4)Glc. The method, boiled down:
as §1

The target of experiment [13] is Gal(b1-4)GlcNAc(b1-3)Gal(b1-4)GlcNAc. The method, boiled down:
as §1

Experiment [14] concerns the target Gal(b1-4)GlcNAc(b1-3)Gal(b1-4)GlcNAc(b1-2)Man(a1-3)[Gal(b1-4)GlcNAc(b1-3)Gal(b1-4)GlcNAc(b1-2)Man(a1-6)]Man(b1-4)GlcNAc(b1-4)GlcNAc. The procedure, abridged:
as §1

The target in experiment [15] is Gal(b1-4)GlcNAc(b1-3)Gal(b1-4)GlcNAc(b1-2)Man(a1-3)[Gal(b1-4)GlcNAc(b1-3)Gal(b1-4)GlcNAc(b1-2)Man(a1-6)]Man(b1-4)GlcNAc(b1-4)[Fuc(a1-6)]GlcNAc. The method, boiled down: as §1
The target in experiment [16] is Gal(b1-4)GlcNAc(b1-3)Gal(b1-4)GlcNAc(b1-2)[Gal(b1-4)GlcNAc(b1-3)Gal(b1-4)GlcNAc(b1-6)]Man(a1-6)[Gal(b1-4)GlcNAc(b1-3)Gal(b1-4)GlcNAc(b1-2)Man(a1-3)]Man(b1-4)GlcNAc(b1-4)GlcNAc. The method, boiled down:
as §1

Experiment [17] addresses Gal(b1-4)GlcNAc(b1-3)Gal(b1-4)GlcNAc(b1-2)[Gal(b1-4)GlcNAc(b1-3)Gal(b1-4)GlcNAc(b1-6)]Man(a1-6)[Gal(b1-4)GlcNAc(b1-3)Gal(b1-4)GlcNAc(b1-2)Man(a1-3)]Man(b1-4)GlcNAc(b1-4)[Fuc(a1-6)]GlcNAc. The procedure, abridged:
as §1

Experiment [18] concerns the target Gal(b1-4)GlcNAc(b1-3)Gal(b1-4)GlcNAc(b1-3)Gal(b1-4)GlcNAc. The method, boiled down:
as §1

In experiment [19] the target is Gal(b1-4)GlcNAc(b1-3)Gal(b1-4)GlcNAc(b1-3)Gal(b1-4)GlcNAc(b1-2)Man(a1-3)[Gal(b1-4)GlcNAc(b1-3)Gal(b1-4)GlcNAc(b1-3)Gal(b1-4)GlcNAc(b1-2)Man(a1-6)]Man(b1-4)GlcNAc(b1-4)GlcNAc. The procedure, abridged:
as §1

Experiment [20] deals with Gal(b1-4)GlcNAc(b1-3)Gal(b1-4)GlcNAc(b1-3)Gal(b1-4)GlcNAc(b1-2)Man(a1-3)[Gal(b1-4)GlcNAc(b1-3)Gal(b1-4)GlcNAc(b1-3)Gal(b1-4)GlcNAc(b1-2)Man(a1-6)]Man(b1-4)GlcNAc(b1-4)[Fuc(a1-6)]GlcNAc. The procedure, abridged: as §1
The target in experiment [21] is Gal(b1-4)GlcNAc(b1-3)Gal(b1-4)GlcNAc(b1-3)Gal(b1-4)GlcNAc(b1-2)[Gal(b1-4)GlcNAc(b1-3)Gal(b1-4)GlcNAc(b1-3)Gal(b1-4)GlcNAc(b1-6)]Man(a1-6)[Gal(b1-4)GlcNAc(b1-3)Gal(b1-4)GlcNAc(b1-3)Gal(b1-4)GlcNAc(b1-2)Man(a1-3)]Man(b1-4)GlcNAc(b1-4)[Fuc(a1-6)]GlcNAc. The procedure, abridged: as §1
Experiment [22] has as its target Gal(b1-4)GlcNAc(b1-3)Gal(b1-4)GlcNAc(b1-3)Gal(b1-4)GlcNAc(b1-3)Gal(b1-4)GlcNAc(b1-2)Man(a1-3)[Gal(b1-4)GlcNAc(b1-3)Gal(b1-4)GlcNAc(b1-3)Gal(b1-4)GlcNAc(b1-3)Gal(b1-4)GlcNAc(b1-2)Man(a1-6)]Man(b1-4)GlcNAc(b1-4)GlcNAc. The procedure, abridged:
as §1

The other results are listed elsewhere or left out.

B1: NKR-PIC (Mus musculus) (protein)
chain: GTGQKPSREKCCVFIQENLNKTTDCSVNLECPQDWLLHRDKCFHVSQVSNTWEEGQADCGRKGATLLLIQDQEELRFLLDSIKEKYNSFWIGLRFTLPDMNWKWINGTTFNSDVLKITGVTENGSCASILGDKVTPESCASDNRWICQKELNHETPSNDSGT
Regarding B1, the “glycan array binding signal (z-score)” value in experiment [1] is -0.392; in experiment [2] it was -0.362; in experiment [3], -0.311; in experiment [4] it was -0.332; in experiment [5], -0.283; in experiment [6], -0.211. For the same molecule, the “glycan array binding signal (z-score)” value in experiment [7] is -0.307; in experiment [8] it was 0.095; in experiment [9], -0.362; in experiment [10] it was -0.35; in experiment [11], -0.255; in experiment [12], -0.355. In addition, the “glycan array binding signal (z-score)” value in experiment [13] is -0.235; in [14], -0.307; in [15], -0.164; in [16], -0.257; in experiment [17] it was -0.286; in experiment [18], -0.241. The “glycan array binding signal (z-score)” value in experiment [19] is -0.247; in experiment [20], -0.258; in [21] it was -0.318; in experiment [22] it was -0.323.
